This is one part of the list. The full chains were built here from the parent and the listed change. Inactive controls read about 0.05.
B1: TEV protease; numbered along this chain (parent)
chain: MGESLFKGPRDYNPISSSICHLTNESDGHTTSLYGIGFGPFIITNKHLFRRNNGTLVVQSLHGVFKVKDTTTLQQHLVDGRDMIIIRMPKDFPPFPQKLKFREPQREERICLVTTNFQTKSMSSMVSDTSCTFPSGDGIFWKHWIQTKDGQCGSPLVSTRDGFIVGIHSASNFTNTNNYFTSVPKNFMELLTNQEAQQWVSGWRLNADSVLWGGHKVFMVKPEEPFQPVKEATQL

Variants of: B1
Experiment: raw area under fraction-flipped curve 0-4 h after induction (AUC4h, not background-subtracted), DNA-recorder readout of cleavage of the substrate (dimensionless); higher = more cleavage of the substrate by the protease variant
Conditions: temperature: 34 °C; time window: 0-4 h after rhamnose induction
Procedure: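 In vivo DNA recorder in E. coli TOP10(DE3) ΔrhaA at 34 °C. Each TEVp single-site mutant (parent TEVp 0) is paired with a single-site variant of the 7-mer TEVs (canonical ENLYFQ|S). The substrate sits between flexible linkers in a Bxb1-sfGFP-TEVs-SsrA fusion, so cleavage stabilises Bxb1 and speeds flipping of a recombination array, read by NGS. The value is the raw area under the fraction-flipped curve over 0-4 h after rhamnose induction (AUC4h), with ≥20 reads per time point. It is not background-subtracted; inactive controls average about 0.047.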
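Also: Bxb1 expression induced with 0.2% (w/v) L-rhamnose at OD600 near 0.5, cultures sampled hourly, flipped fraction per protease–substrate barcode pair counted by paired-end Illumina sequencing.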

Row | Variant | area with substrate ENLYFQC | area with substrate ENLYFQE | area with substrate ENLYFQN | area with substrate ENLYFQP | area with substrate ENLYFQR | area with substrate ENLYFQS | area with substrate ENLYFQT | area with substrate ENLYFQY | area with substrate ENLYFQD | area with substrate ENLYFQF | area with substrate ENLYFQG | area with substrate ENLYFQH | area with substrate ENLYFQL | area with substrate ENLYFQM | area with substrate ENLYFQK | area with substrate ENLYFQQ | area with substrate ENLYFQW | area with substrate ENLYFQI | area with substrate ENLYFQV
1 | P94C | 0.122 | 0.0545 | 0.0545 | 0.0667 | 0.0688 | 0.105 | 0.0592 | 0.0804 | – | – | – | – | – | – | – | – | – | – | –
2 | T55P | 0.0915 | – | 0.0464 | 0.054 | – | 0.0853 | 0.0637 | – | 0.0783 | 0.0704 | 0.0947 | 0.066 | 0.0645 | 0.0779 | – | – | – | – | –
3 | T55W | 0.118 | 0.0595 | 0.0721 | 0.06 | 0.0581 | 0.0992 | 0.0535 | 0.0636 | 0.0818 | 0.05 | – | 0.0404 | 0.0711 | 0.0909 | 0.0647 | 0.0775 | 0.0612 | – | –
4 | T55R | 0.138 | – | – | – | 0.0623 | 0.096 | 0.049 | 0.073 | – | – | 0.113 | – | 0.0677 | – | 0.047 | – | 0.0873 | 0.058 | 0.0697
5 | L73M | 0.0865 | – | 0.0699 | – | 0.0627 | 0.0904 | 0.0442 | 0.0699 | – | 0.0312 | 0.076 | 0.067 | 0.0187 | 0.0833 | 0.0804 | 0.0551 | – | – | –
6 | L73A | 0.0703 | – | – | – | 0.0686 | 0.0701 | 0.062 | – | – | – | 0.0597 | – | 0.0558 | – | 0.0583 | – | – | – | –
7 | P93G | 0.118 | – | – | 0.0277 | 0.0611 | 0.103 | 0.0825 | 0.0726 | – | – | 0.0898 | – | 0.0642 | – | 0.0686 | – | 0.0538 | – | 0.0836
8 | I85E | 0.049 | – | – | – | 0.0597 | 0.0441 | – | – | – | – | – | – | 0.0409 | – | – | – | 0.0393 | – | –
9 | Q74L | 0.108 | – | 0.0626 | – | 0.0776 | 0.1 | – | 0.0917 | – | – | 0.0977 | – | – | – | – | 0.0709 | 0.0697 | 0.0547 | –
10 | D79Y | 0.148 | – | 0.0845 | – | – | 0.0857 | 0.0549 | – | – | – | 0.0536 | – | – | – | 0.0664 | – | 0.0791 | 0.0677 | –
11 | D79R | 0.0964 | 0.0675 | 0.0511 | – | 0.0616 | 0.0826 | 0.0607 | 0.0681 | 0.0806 | – | 0.0843 | 0.0719 | 0.0589 | 0.0856 | 0.0662 | – | – | 0.0499 | –
12 | P89I | 0.0822 | – | 0.0399 | 0.0403 | 0.0524 | 0.0669 | 0.0555 | 0.0674 | – | 0.0465 | – | 0.0608 | – | 0.0509 | – | – | – | – | –
13 | P89D | 0.121 | – | – | – | – | 0.0972 | – | – | – | – | – | – | – | 0.0848 | – | – | – | – | –
14 | M83H | 0.0605 | 0.0644 | 0.0597 | – | 0.0693 | 0.0568 | 0.0511 | 0.063 | 0.0531 | 0.0596 | 0.0524 | 0.0508 | 0.0532 | 0.0559 | – | 0.0572 | 0.0601 | 0.0506 | –
15 | M83N | 0.0532 | 0.0455 | 0.0436 | 0.0552 | – | 0.0544 | 0.0501 | – | 0.0427 | 0.0377 | 0.0421 | 0.0625 | 0.0471 | 0.0382 | 0.043 | – | 0.051 | 0.0376 | –
16 | Q75Y | 0.0764 | – | 0.0615 | – | – | 0.0751 | 0.0539 | – | 0.0602 | – | 0.0757 | – | 0.0539 | 0.0595 | 0.0545 | – | 0.0584 | 0.0601 | 0.0648
17 | V57H | 0.103 | – | – | – | 0.0652 | 0.0942 | – | – | 0.0777 | – | 0.131 | – | 0.0747 | – | – | – | 0.108 | – | 0.0551

Row | Variant | area with substrate ENLYFQC | area with substrate ENLYFQE | area with substrate ENLYFQN | area with substrate ENLYFQP | area with substrate ENLYFQR | area with substrate ENLYFQS | area with substrate ENLYFQT | area with substrate ENLYFQY | area with substrate ENLYFQD | area with substrate ENLYFQF | area with substrate ENLYFQG | area with substrate ENLYFQH | area with substrate ENLYFQL | area with substrate ENLYFQM | area with substrate ENLYFQK | area with substrate ENLYFQQ | area with substrate ENLYFQW | area with substrate ENLYFQI | area with substrate ENLYFQV
18 | V58W | 0.0736 | – | – | – | – | 0.0683 | – | – | – | – | – | – | – | 0.0681 | – | – | – | 0.0474 | 0.0352
19 | F92Q | 0.109 | – | 0.0822 | – | 0.0549 | 0.0989 | 0.0882 | 0.0638 | 0.071 | – | 0.0904 | – | 0.0544 | 0.0845 | 0.0549 | – | 0.0665 | 0.0518 | 0.0538
20 | F92W | 0.103 | – | 0.103 | – | – | 0.114 | 0.0544 | 0.0885 | 0.0665 | – | – | – | 0.0638 | 0.095 | – | – | – | – | –
21 | H62P | 0.105 | – | 0.0624 | 0.0535 | 0.0596 | 0.0799 | 0.0591 | – | – | – | 0.0857 | 0.0682 | – | – | – | – | – | – | 0.0677
22 | H62E | 0.101 | 0.0682 | 0.0681 | 0.0441 | 0.0769 | 0.0977 | 0.056 | – | – | 0.0786 | 0.106 | 0.0576 | – | 0.0806 | – | – | 0.0657 | – | –
23 | I84K | 0.0589 | 0.042 | – | – | – | 0.0566 | 0.058 | 0.0545 | – | – | 0.0558 | 0.0499 | 0.0482 | – | 0.046 | – | 0.0607 | 0.0508 | –
24 | I84L | 0.0869 | – | – | – | 0.0706 | 0.0903 | 0.0755 | – | 0.0657 | – | 0.0959 | 0.0678 | – | 0.0747 | 0.0486 | 0.0655 | – | – | –
25 | I84Y | 0.0822 | – | 0.0545 | – | – | 0.0569 | 0.035 | 0.0504 | – | – | – | – | 0.0559 | 0.0518 | 0.0676 | – | – | 0.049 | –
26 | H76Y | 0.0886 | – | 0.076 | – | 0.0575 | 0.084 | 0.0647 | – | – | – | 0.0469 | 0.0694 | 0.0421 | – | 0.0673 | 0.0695 | 0.0674 | 0.0546 | 0.0518
27 | K68S | 0.115 | 0.0684 | 0.0918 | – | – | 0.105 | – | 0.0566 | – | 0.0698 | 0.106 | – | 0.0694 | 0.0952 | – | – | – | 0.0635 | 0.0759
28 | G63E | 0.0916 | – | – | – | 0.0497 | 0.0857 | 0.0717 | – | – | – | – | – | 0.0619 | – | 0.0451 | 0.0888 | – | – | 0.0675
29 | T72L | 0.112 | – | – | – | – | 0.102 | 0.0827 | – | – | – | 0.092 | – | – | 0.0886 | 0.0544 | – | 0.0614 | 0.0312 | –
30 | T72M | 0.103 | – | 0.0772 | – | – | 0.0956 | 0.066 | 0.0777 | – | – | – | 0.0835 | 0.0598 | 0.0876 | – | 0.0704 | – | 0.0602 | –
31 | D82C | 0.0474 | – | 0.0444 | – | 0.0466 | 0.0573 | – | – | – | – | 0.0478 | – | 0.0768 | – | 0.0654 | – | 0.0345 | 0.0529 | –
32 | F95E | 0.0536 | 0.0568 | 0.0403 | 0.0611 | 0.0499 | 0.0521 | 0.0504 | 0.0554 | – | 0.0572 | 0.115 | 0.0254 | 0.0422 | 0.0558 | 0.0541 | – | – | – | –
33 | R81Q | 0.109 | – | 0.0717 | 0.0576 | 0.0764 | 0.089 | – | – | – | – | – | – | – | 0.0715 | – | – | – | – | 0.0479

Source: the supplement of paper PMC12217912
